Reference: EP0132540A1 (priority 1981, dated 1983)

Assays:
[1] = system: influenza virus B/GL; format: in vivo, ICR female mice; conditions: oral, one hour after infection, 15 days after infection
[2] = system: influenza virus A/WSN; format: in vivo, ICR mice; conditions: one hour after infection, 15 days after infection
[3] = system: Vesicular stomatitis; assay: microbe, parasite or virus in culture; format: cell-based; conditions: read-out: Minimum Inhibitory Concentration
[4] = system: Influenza A2; assay: microbe, parasite or virus in culture; format: cell-based; conditions: read-out: Minimum Inhibitory Concentration
[5] = system: Respiratory virus; assay: Antiviral activity in cultured cells (inhibition of cytopathic effect); format: cell-based; conditions: Virus I = Respiratory virus; complete inhibition of cytopathic effect by 100 TCID50; read-out: Minimum Inhibitory Concentration

Compound `NC12CC3CC(CC(C3)C1)C2` [Amantadine, reference compound] has a Survival rate ([1]; dosage 300 mb/kg) of 30%, a Survival rate ([2]; intraperitoneal, 100 mg/Kg) of 40% and a Survival rate ([2]; oral, 300 mg/Kg) of 40%.

`CNS(=O)(=O)c1cc(C(=O)O)ccc1Cl` [Compound 1, 4-chloro-3-methylamino-sulfonylbenzoic acid] was tested, and the MIC [3] was 300 µg/mL (≈ 1200 µM) and the MIC [4] was 300 µg/mL (≈ 1200 µM).

Work on `CCNS(=O)(=O)c1cc(C(=O)O)ccc1Cl` [Compound 2, 4-chloro-3-ethylamino-sulfonylbenzoic acid] yielded an MIC [3] of 300 µg/mL (≈ 1140 µM), an MIC [4] of 300 µg/mL (≈ 1140 µM) and an MIC [5] of 100 µg/mL (≈ 379 µM).

`CN(C)S(=O)(=O)c1cc(C(=O)O)ccc1Cl` [Compound 3, 4-chloro-3-dimethyl-aminosulfonylbenzoic acid] was tested, and the MIC [3] was 300 µg/mL (≈ 1140 µM) and the MIC [4] was 300 µg/mL (≈ 1140 µM).

Work on `CC(C)NS(=O)(=O)c1cc(C(=O)O)ccc1Cl` [Compound 4, 4-chloro-3-isopropyl-aminoslfonylbenzoic acid] yielded an MIC [3] of 300 µg/mL (≈ 1080 µM) and an MIC [4] of 300 µg/mL (≈ 1080 µM).

In the case of `O=C(O)c1ccc(Cl)c(S(=O)(=O)Nc2ccccc2)c1` [Compound 5, 3-anilinosulfonyl-4-chlorobenzoic acid], the MIC [3] is reported as 300 µg/mL (≈ 962 µM) and the MIC [4] is reported as 300 µg/mL (≈ 962 µM).

In the case of `O=C(O)c1ccc(Cl)c(S(=O)(=O)N2CCOCC2)c1` [Compound 6, 4-chloro-3-morpholino-sulfonylbenzoic acid], the MIC [3] is reported as 300 µg/mL (≈ 981 µM) and the MIC [4] is reported as 300 µg/mL (≈ 981 µM).

In the case of `NS(=O)(=O)c1cc(C(=O)O)c(Cl)cc1Cl` [Compound 7, 5-aminosulfonyl-2,4-dichlorobenzoic acid], the MIC [3] is reported as 100 µg/mL (≈ 370 µM), the MIC [4] is reported as 300 µg/mL (≈ 1110 µM) and the MIC [5] is reported as 30 µg/mL (≈ 111 µM).

`COC(=O)c1ccc(F)c(S(N)(=O)=O)c1` [Compound 8, 3-aminosulfonyl-4-fluoromethylbenzoate] gave a Survival rate ([2]; intraperitoneal, 30 mg/Kg) of 40% and a Survival rate ([2]; intraperitoneal, 100 mg/Kg) of 50%.

`CC(C)OC(=O)c1ccc(Br)c(S(N)(=O)=O)c1` [Compound 9, 3-aminosulfonyl-4-bromo-isopropylbenzoate] was tested, and the Survival rate ([1]; dosage 100 mb/kg) was 30% and the Survival rate ([1]; dosage 300 mb/kg) was 40%.

In the case of `CCCCOC(=O)c1ccc(Br)c(S(N)(=O)=O)c1` [Compound 10, 3-aminosulfonyl-4-bromo-n-butylbenzoate], the Survival rate ([1]; dosage 30 mb/kg) is reported as 60%, the Survival rate ([1]; dosage 300 mb/kg) is reported as 70% and the Survival rate ([2]; intraperitoneal, 10 mg/Kg) is reported as 50%. The Survival rate ([2]; intraperitoneal, 30 mg/Kg) was 70%, the Survival rate ([2]; oral, 30 mg/Kg) was 50% and the Survival rate ([2]; oral, 100 mg/Kg) was 60%.

For `C=CCOC(=O)c1cc(S(N)(=O)=O)c(Cl)cc1Cl` [Compound 11, 5-aminosulfonyl-2,4-dichloro-allylbenzoate], the Survival rate ([2]; intraperitoneal, 30 mg/Kg) was 30% and the Survival rate ([2]; intraperitoneal, 100 mg/Kg) was 40%.

Values after ≈ are worked out from the molar mass of the structure shown. Where two headings read alike, the source gives them in different places.
